From ChEMBL document CHEMBL4888484, “Replenishing the malaria drug discovery pipeline: Screening and hit evaluation of the MMV Hit Generation Library 1 (HGL1) against asexual blood stage Plasmodium falciparum ,using a nano luciferase reporter read-out” (2022) come the findings set out here.

Each structure is given as a SMILES string. Hit rate of the full screen: of about 150,000 compounds, about 540 (0.36%) showed an effect of 50% or more. The list shows a part of the results.

The test system of this experiment is Plasmodium falciparum. Briefly: Primary screen in NF54 nanoGlo assay, in single point, at 2uM, 72h; a lower Z score goes with more inhibition. The class given is functional, Erythrocyte. As to conditions: timepoint 72 hour.
For the compound `COC(C)(C)C[C@H](C)NC(=O)NCc1ccc(Br)o1`, the % Inhibition (as a rule, the relative decrease from the control value, in per cent) was determined as 10% and the Z score is listed as -1.42.

Turning to `COc1ccccc1OCc1csc(NC(=O)C2CCCCC2)n1`, the “% Inhibition” value was -3% and the Z score worked out at 0.48.

Take `Cc1ccnc(NS(=O)(=O)c2ccc(NC(=O)c3oc4cc(C)c(Cl)cc4c3C)cc2)n1`: the “% Inhibition” value was -10% and the Z score is recorded as 1.64.

On to `COc1c(F)cc(C(=O)NCc2cc3n(n2)CCCN(C(C)=O)C3)cc1F`, for which the “% Inhibition” value is given as -13% and the Z score is 1.7.

In the case of `CCc1nc2ccccc2c(C(=O)Nc2ccc(OC)c(S(=O)(=O)N3CCCCC3)c2)c1C`, the “% Inhibition” value is listed as -9% and the Z score stood at 1.34.

In the case of `CNc1nc2c(c(C(=O)N3CCCC3)n1)CN(c1nnc(C)c3ccccc13)CC2`, the “% Inhibition” value turned out to be 2% and the Z score is recorded as -0.41.

Regarding `Cc1cccc2[nH]c([C@@H]3CCCN3CCC(=O)NCc3ccco3)nc12`, the “% Inhibition” value is -13% and the Z score came out at 1.94.

In the case of `CO[C@@H](C(=O)Nc1cc(-c2nccn2C)n[nH]1)c1ccccc1`, the “% Inhibition” value was 2% and the Z score is listed as -0.26.

For the compound `CCC[C@H](CC)Nc1nc(C)nc2oc(C)nc12`, the “% Inhibition” value was -10% and the Z score is on record as 1.5.

Turning to `O=C(Nc1ccc2c(c1)C(=O)N1CCC[C@H]1C(=O)N2)c1ccco1`, the “% Inhibition” value is -14% and the Z score was 1.7.

Regarding `Cc1ncsc1C(=O)Nc1nccn1CC(C)C`, the “% Inhibition” value is given as -8% and the Z score stood at 1.53.

Turning to `COc1ccc(N2CCN(C(=O)CCN3CCN(c4ncccn4)CC3)CC2)cc1`, the “% Inhibition” value is on record as -4% and the Z score turned out to be 0.6.

Turning to `Cc1cnc(C(=O)N(C)[C@@H](C)C2CC2)cn1`, the “% Inhibition” value was -4% and the Z score is 0.47.

In the case of `c1cn(C[C@H]2CCCN2Cc2cscn2)cn1`, the “% Inhibition” value is on record as -9% and the Z score was found to be 1.27.

For `CN(C(=O)C1CC2C=CC1C2)c1ccccc1` (stereo unspecified), the “% Inhibition” value is on record as -7% and the Z score worked out at 1.26.

In the case of `CCN(C[C@H](CC(C)C)NC(=O)c1cccnc1O)C(=O)c1cccnc1O`, the “% Inhibition” value is on record as -7% and the Z score was found to be 1.38.

Consider `CCn1ccc2ccc(CN3C[C@@H]4CC[C@H]3CN(S(=O)(=O)N(C)C)C4)cc21`, for which the “% Inhibition” value was 6% and the Z score is -0.91.

For `Cc1ccccc1C1(C(=O)Nc2cnn(C(C)C)c2)CCCC1`, the “% Inhibition” value was -14% and the Z score is listed as 1.54.

As to `COc1cccc([C@H]2CC(=O)Nc3ccsc32)c1OCc1ccccc1F`, the “% Inhibition” value was found to be 9% and the Z score was -1.26.

`COCCn1c(=O)n(Cc2noc(C(C)(C)C)n2)c2cc(C(=O)O)ccc21`: the “% Inhibition” value is reported as -21% and the Z score is 1.82.

As for `FC(F)(F)Cn1nc(C2CC2)nc1[C@H]1C[C@H]2C=C[C@@H]1C2`, the “% Inhibition” value is given as -7% and the Z score was 1.24.

On to `COCC1(C)CN(C(=O)NCCC2(O)CCCOC2)CCO1` (stereo unspecified), for which the “% Inhibition” value is reported as -3% and the Z score stood at 0.63.

Take `CC(=O)c1ccc(OC2(C(=O)O)CCN(C3CCCCCC3)CC2)cc1F`: the “% Inhibition” value is listed as -4% and the Z score is recorded as 0.72.

`CCn1nc(C)cc1C(=O)Nc1ccc(Cn2ccnc2C)cc1`: the “% Inhibition” value is -10% and the Z score was 1.94.

In the case of `Cc1cc(Br)oc1C(=O)N1CCOC2CCCC21` (stereo unspecified), the “% Inhibition” value came out at 0% and the Z score is given as -0.03.

Turning to `CC1(C)COc2ccc(C(=O)N3CC[C@H](O)C3(C)C)cc21`, the “% Inhibition” value was 19% and the Z score is recorded as -2.22.

Take `O=C(c1cc(O)ccn1)N1CC[C@@](F)(c2ccccc2F)C1`: the “% Inhibition” value was 2% and the Z score was -0.27.

With `O=C(Nc1ccc(Cl)c(Cl)c1)N1C[C@@H](O)[C@@H](O)C1`, the “% Inhibition” value was -9% and the Z score worked out at 1.25.

With `CN(C)CCn1c(=O)c(CN2CCN(c3ccccn3)CC2)cc2ccc(F)cc21`, the “% Inhibition” value is 6% and the Z score is listed as -1.16.

As to `Cc1nc(CNC(=O)CC(C)(C)CC(=O)c2ccccc2)c(C)s1`, the “% Inhibition” value was -4% and the Z score was 0.55.

Turning to `CC(C)(N)c1cc(Cl)cc(Cl)c1`, the “% Inhibition” value is on record as -2% and the Z score is on record as 0.24.

`Cn1ccc(C(=O)N2CCC[C@H](c3c[nH]c4ncccc34)C2)n1`: the “% Inhibition” value came out at 7% and the Z score is on record as -1.12.

For the compound `CCCC1CCC(CN2C[C@H](C(=O)O)[C@@H](c3cncn3C)C2)CC1` (stereo partly specified), the “% Inhibition” value is 3% and the Z score is -0.65.

In the case of `O=C1CC[C@@H](C(=O)Nc2ccccc2OCC2CC2)N1`, the “% Inhibition” value is on record as -5% and the Z score amounted to 1.01.

`Cc1n[nH]cc1CN(C)C(=O)c1cncc(F)c1`: the “% Inhibition” value was -5% and the Z score is 0.81.

For the compound `COCCN(C)C(=O)Nc1ccc(Cl)c(OC(F)F)c1`, the “% Inhibition” value came to 0% and the Z score was -0.01.

With `Cc1c(S(=O)(=O)N2C[C@H](C(=O)O)[C@@H](C)C2)oc2ccc(F)cc12`, the “% Inhibition” value was 0% and the Z score is listed as 0.01.

For `C[C@@H](NC(=O)NC1(CN(C)C)CCC1)C(=O)N1Cc2ccccc2C1`, the “% Inhibition” value was -5% and the Z score is reported as 0.45.

Turning to `Cc1ccc(NC(=O)N2CCC(c3nc4cc(Cl)ccc4o3)CC2)c(Br)c1`, the “% Inhibition” value was -1% and the Z score worked out at 0.18.

Consider `COc1ccccc1Cc1n[nH]c(CCCn2cccn2)n1`, for which the “% Inhibition” value is listed as -3% and the Z score was found to be 0.42.

Take `CCCN(C)C(=O)[C@H](C1CCCC1)N1CCN(C(=O)c2ccc(OC)cc2)CC1`: the “% Inhibition” value was -18% and the Z score was determined as 2.64.

For the compound `Cn1c(=O)c2c(ncn2Cc2ncc(-c3cccs3)o2)n(C)c1=O`, the “% Inhibition” value was -12% and the Z score is reported as 1.66.

For the compound `COc1ccc(Cl)cc1NC(=O)N1CC(Oc2cccc(C(F)(F)F)n2)C1`, the “% Inhibition” value turned out to be 0% and the Z score amounted to 0.02.
